According to PubChem BioAssay AID2107 (National Center for Advancing Translational Sciences (NCATS), 2009):
Out of some 240,000 compounds screened, about 20 (0.008%) were called active. The inconclusive results got no clear call from the source; some entries with a clear call stand among them for comparison. Calls come from the whole dose curve; as a rule, active = well fitted inhibition curve with a large enough effect; inconclusive = small, poorly fitted or top-dose-only effect, or effect the other way; inactive = flat fitted curve, though single readings scatter. No potency is given beside an inconclusive call; the fits are too rough.

The compounds below were run against Alpha-galactosidase A (Homo sapiens) (UniProt P06280) (assay: qHTS Assay for Inhibitors and Activators of Human alpha-Galactosidase From Spleen Homogenate). Details: 4MU-alpha-Gal fluorescence, 40 min; series mostly up to 80 µM.
In short: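 Fluorogenic readout (Ex 365/Em 440 nm) of 4-methylumbelliferone released from 1 mM 4-MU-alpha-galactoside by spleen homogenate, 40 min at 37C, pH 5.0. Data normalized to no-enzyme and enzyme controls; Hill-equation AC50 from compound titrations.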
Potency is the fitted concentration of half-maximal effect; tags give direction and shape of the fitted curve.

Sequence of UniProt P06280 (P06280 whole entry, looked up): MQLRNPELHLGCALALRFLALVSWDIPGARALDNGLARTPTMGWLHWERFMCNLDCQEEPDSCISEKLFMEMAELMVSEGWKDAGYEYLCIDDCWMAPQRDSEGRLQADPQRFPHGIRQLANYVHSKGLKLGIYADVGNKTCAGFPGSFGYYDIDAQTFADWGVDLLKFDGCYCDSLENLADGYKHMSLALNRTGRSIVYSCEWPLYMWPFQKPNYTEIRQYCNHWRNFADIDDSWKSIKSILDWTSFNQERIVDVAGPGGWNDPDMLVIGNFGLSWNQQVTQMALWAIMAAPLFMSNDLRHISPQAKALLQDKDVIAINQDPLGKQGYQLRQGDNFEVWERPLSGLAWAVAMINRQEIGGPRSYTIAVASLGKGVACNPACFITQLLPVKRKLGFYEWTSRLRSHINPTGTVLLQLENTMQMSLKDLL

| Structure (SMILES) | Potency |
| --- | --- |
| Cc1cccc(N2N=C(C(=O)N3CC(=O)Nc4ccccc43)CCC2=O)c1 | inconclusive [activator, single point] |
| O=C(NNC(=O)c1ccc2ccccc2c1O)c1ccccc1Cl | inactive |
| O=C(NCc1ccc(F)cc1)c1cnc(-c2ccccn2)nc1C(F)(F)F | inconclusive [activator, full curve, poor fit] |
| O=C(Nc1nccs1)c1ccc(N2C(=O)C3CCCCC3C2=O)cc1 (centres undefined) | inactive |
| Cc1ccc(-c2cc(C(=O)NCc3ccco3)c3ccccc3n2)s1 | inconclusive [activator, single point] |
| CCN1CCN(c2c(/C=C3\SC(=S)N(Cc4ccco4)C3=O)c(C)c(C#N)c(=O)n2C)CC1 | inconclusive [activator, partial curve] |
| Cc1ccc(-n2c(Cc3cccs3)nnc2SCC(=O)OC(C)C)cc1 | inconclusive [inhibitor, single point] |
| N#Cc1c(-c2ccccc2F)cc(-c2cccnc2)nc1N | inconclusive [activator, partial curve] |
| FC(F)(F)c1nnc(-c2ccccc2)nc1N1CCOCC1 | inconclusive [inhibitor, partial curve, poor fit] |
| CC1=C(C(=O)OCc2ccccc2)C(c2ccoc2)C(C#N)=C(N)O1 (centres undefined) | inconclusive [inhibitor, partial curve] |
| Cc1nc2c(C(=O)N3CCCCC3)cnn2c(C)c1Cc1ccccc1F | inconclusive [activator, single point] |
| CNC(=O)c1ccccc1NC(=O)c1ccco1 | inconclusive [inhibitor, single point] |
| CC1(C)CC(NC(=O)C23CCC(C)(/C(=N/O)C2)C3(C)C)CC(C)(C)N1 (centres undefined) | inactive |
| Oc1ccccc1-c1nc2cnccn2c1Nc1ccc2c(c1)OCCO2 | inactive |
| O=C(CSc1nc2c(sc3ccccc32)c(=O)n1CCCN1CCCC1)NCc1ccco1 | inconclusive [activator, partial curve] |
| O=c1[nH]cc([N+](=O)[O-])cc1Br | inconclusive [inhibitor, single point] |
| CCNc1c(C(=O)O)ccc2c1C(=O)c1ccccc1C2=O | inactive |
| N#Cc1c(-c2cccnc2)cc(-c2ccccc2)nc1N | inconclusive [activator, single point] |
| Cc1ccc(-n2c(=O)c3ccc(C(=O)NCc4ccco4)cc3n(Cc3ccccc3C#N)c2=O)cc1 | inactive |
| O=C1CC(c2ccccc2F)c2c(c3ccccc3[nH]c2=O)O1 (centres undefined) | inactive |
| CC(=O)c1cc2ccc(O)cc2oc1=O | inconclusive [activator, partial curve] |
| C[C@@H](c1ccccc1)N1C(=O)[C@H]2[C@@H]3[C@H](O)[C@H](O)CC(=O)[C@H]3CC[C@H]2C1=O | inconclusive [inhibitor, single point] |
| COC(=O)c1cc2c(cc1[N+](=O)[O-])OCO2 | inactive |
| Cc1cccc(NC(=S)N(c2ccccc2)C(C)C)c1C | inconclusive [activator, single point] |
| CCOc1ccc(C(C)NC(=S)NC2CCCCC2)cc1OCC (centres undefined) | inactive |

| Structure (SMILES) | Potency |
| --- | --- |
| O=C1c2sc3nc4c(c(=O)n3c2C(=O)N1c1ccccc1)CCC4 | inactive |
| COc1cc(CNc2ncnc3ccc(-c4c(C)noc4C)cc23)cc(OC)c1OC | inactive |
| O=C(NC1CCCCC1)c1ccc2c(=O)n(CC3CCCO3)c(=O)[nH]c2c1 (centres undefined) | inconclusive [activator, single point] |
| O=C1/C(=C/C=C/c2ccco2)SC(=S)N1NS(=O)(=O)c1ccccc1 | inconclusive [inhibitor, single point] |
| O=C(NCc1ccco1)c1ccc2c(c1)C(=O)c1ccccc1-2 | inactive |
| CC(C)c1cc(NCC2CCCO2)n2c(nc3ccccc32)c1C#N (centres undefined) | inconclusive [activator, partial curve] |
| O=C(Nc1ccon1)c1cnc2sccn2c1=O | inconclusive [activator, single point] |
| CCCOc1ccc(/C=N/NC(=O)CSCc2ccc([N+](=O)[O-])cc2)cc1OCC | inactive |
| COCc1cc(=O)n2c([nH]c3ccccc32)c1C#N | inconclusive [activator, full curve] |
| COc1ccc2c(c1)CCc1cc(C(=O)O)sc1-2 | inconclusive [activator, partial curve] |
| COC(=O)c1ccc(NC(=O)CCS(=O)(=O)c2ccc(Br)cc2)cc1 | inactive |
| COCCNC(=O)CSc1nnc(-c2ccccc2)c(-c2ccccc2)n1 | inactive |
| CCOc1ccc(NC(=O)CCS(=O)(=O)c2ccc3c(c2)CCCN3C(C)=O)cc1 | inactive |
| Cc1ccc(S(=O)(=O)Nc2ccc3nc(N)sc3c2)cc1 | inactive |
| CC(=O)Oc1ccc2cc(-c3ccccc3)c(=O)oc2c1 | inconclusive [activator, partial curve] |
| COc1ccccc1N1CCN(C(C)C(=O)Nc2ccc(S(=O)(=O)N3CCOCC3)cc2)CC1 (centres undefined) | inactive |
| CCOc1ccccc1NC(=O)CCc1ccc(C)o1 | inconclusive [inhibitor, single point] |
| CSc1nc(C)c(Cl)c(C)c1C#N | inconclusive [inhibitor, single point] |
| Cc1cnc(CNc2ccnc(-c3ccc(N(C)C)cc3)n2)cn1 | inactive |
| CCSc1nc2c(c(-c3ccc(C)o3)c1C#N)CCCC2 | inactive |
| CC1=C(C(=O)OC(C)C)C(c2cccs2)NC(=S)N1 (centres undefined) | inactive |
| C=CCn1c(SCC(=O)c2ccc(O)c(O)c2)nnc1-c1cccnc1 | inactive |
| CC1=CC=CN2C1=NC(=O)CC2(C)C(=O)N(CC(=O)NC1CCCC1)c1ccccc1C (centres undefined) | inconclusive [activator, partial curve] |
| COCCOC(=O)C1=C(C)NC2=C(C(=O)CC(C)(C)C2)C1c1cccnc1 (centres undefined) | inconclusive [activator, single point] |
| O=C(N/N=C/c1ccc(F)cc1)c1cc(-c2ccco2)nc2ccccc12 | inconclusive [activator, partial curve] |

| Structure (SMILES) | Potency |
| --- | --- |
| Cc1ccc2oc(=O)c(/C=C(\O)c3ccccc3)nc2c1 | inactive |
| CSc1nc2sc3c(c2c2nnnn12)CCCC3 | inconclusive [inhibitor, partial curve] |
| O=C(CSc1ncccc1-c1nc2ccccc2[nH]1)N1CCCCC1 | inconclusive [activator, single point] |
| CCNc1ncc2nc(-c3ccccc3)c(=O)n(CCC#N)c2n1 | inconclusive [activator, partial curve] |
| Cc1cc(C)c(S(=O)(=O)/N=C2/C=C(SCC(=O)O)C(=O)c3ccccc32)cc1C | inconclusive [inhibitor, partial curve] |
| CC1=CC=CC2=NC(=O)CC(C)(C(=O)N(CC(=O)NC3CCCC3)c3ccccc3C)N12 (centres undefined) | inconclusive [activator, partial curve] |
| CCOC(=O)C1=C(C)c2ccccc2OC1(C)C(=O)OCC (centres undefined) | inconclusive [inhibitor, single point] |
| COCCNC(=O)c1c(N)n(-c2ccccc2)c2nc3ccccc3nc12 | inconclusive [activator, single point] |
| CC(C)(C)C(=O)Nc1ccccc1N1CCN(C(=O)c2ccc(Cl)cc2)CC1 | inconclusive [activator, single point] |
| O=C(Nc1nc(N2C(=O)c3ccccc3C2=O)n(-c2ccccc2)n1)c1ccc(F)cc1 | inconclusive [activator, single point] |
| COc1ccc(-c2ccc(N(C)C)cc2)cc1C1C2C=CCC(C)C2C(=O)N1Cc1ccccc1 (centres undefined) | inactive |
| CC(C)[C@H](Nc1ccc(S(=O)(=O)N2CCOCC2)cc1[N+](=O)[O-])C(=O)OCC(=O)N(C(C)C)C(C)C | inactive |
| CCOc1ccc(C2OC34CCCCC3C(C#N)(C#N)C2(C#N)C(=N)O4)cc1OC (centres undefined) | inconclusive [activator, partial curve] |
| Cc1cc(NC(=O)CSC2=NCCS2)no1 | inactive |
| COC(=O)c1ccc(S(=O)(=O)N2CCCCCC2)cc1 | inconclusive [activator, single point] |
| O=C(O)C1CCCCC1C(=O)NCCc1cccc(Cl)c1 (centres undefined) | inconclusive [inhibitor, single point] |
| Cc1c(Cl)cccc1NC(=S)NC(=O)CCN1C(=O)c2ccccc2C1=O | inactive |
| CCOC(=O)c1cnc2ccc(C)cn2c1=O | inconclusive [activator, partial curve] |
| CC(C)P(=O)(Cc1cccc(C#N)c1)C(C)C | inconclusive [activator, single point] |
| COC(=O)C1=CN(CCOC23CC4CC(CC(C4)C2)C3)C=C(C(=O)OC)C1c1ccsc1 | inconclusive [activator, single point] |
| Cc1nonc1NC(=O)CSc1nnc(-c2ccoc2C)n1-c1cccc(Cl)c1 | inactive |
| CN(C)c1ccc(/C=C(\C#N)C(=O)c2ccccc2)cc1 | inactive |
| Cc1ccc(C(=O)CSc2nnc(-c3ccncc3)n2C)cc1 | inactive |
| Cc1ccc2c(Cl)cc(Cl)c(OCC(=O)OCC(=O)Nc3ccc(C#N)cc3)c2n1 | inconclusive [inhibitor, single point] |
